Measured values: the supplement of paper PMC3334620
In all, about 33,000 sequences were measured (“E-score (-0.5 to 0.5)”: median about -0.011, highest 2% from about 0.28 on). This is one part of the list.

Each sequence was assayed against T1, Gcr1 (UniProt P07261) (assay: PBM E-score (8-mer binding enrichment) (E-score (-0.5 to 0.5)); higher = stronger / more preferred TF binding; most listed sequences are background and not binding sites). Details: protein concentration: 100 nM; construct: GST-full length.
T1 sequence: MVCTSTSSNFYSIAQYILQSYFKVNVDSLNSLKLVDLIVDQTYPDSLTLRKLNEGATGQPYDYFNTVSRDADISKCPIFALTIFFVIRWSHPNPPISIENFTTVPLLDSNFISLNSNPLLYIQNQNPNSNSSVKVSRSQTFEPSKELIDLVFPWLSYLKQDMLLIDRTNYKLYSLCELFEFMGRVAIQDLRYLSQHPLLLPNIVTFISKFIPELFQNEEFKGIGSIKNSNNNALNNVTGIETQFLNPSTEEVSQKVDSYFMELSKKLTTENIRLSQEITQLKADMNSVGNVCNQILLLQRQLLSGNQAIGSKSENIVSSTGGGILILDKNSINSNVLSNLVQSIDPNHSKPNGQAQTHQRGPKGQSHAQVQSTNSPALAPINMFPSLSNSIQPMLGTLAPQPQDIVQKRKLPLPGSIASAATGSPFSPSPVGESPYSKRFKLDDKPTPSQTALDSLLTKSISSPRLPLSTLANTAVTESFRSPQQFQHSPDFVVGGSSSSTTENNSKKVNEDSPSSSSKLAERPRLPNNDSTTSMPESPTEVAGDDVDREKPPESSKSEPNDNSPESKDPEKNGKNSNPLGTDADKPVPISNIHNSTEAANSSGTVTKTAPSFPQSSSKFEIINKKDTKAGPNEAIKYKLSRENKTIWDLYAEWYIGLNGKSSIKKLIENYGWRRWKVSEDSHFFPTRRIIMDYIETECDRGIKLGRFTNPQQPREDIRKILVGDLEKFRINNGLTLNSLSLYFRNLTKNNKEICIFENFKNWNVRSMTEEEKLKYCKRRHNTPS
Procedure: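 Universal 'all 10-mer' protein binding microarrays (Agilent AMADID 015681) probed with GST-tagged S. cerevisiae TFs (full-length or DBD) made by in vitro transcription/translation (PURExpress), about 100-200 nM. Bound TF was detected with fluorescent anti-GST. Each ungapped 8-mer (which stands for itself and its reverse complement) is scored by the PBM enrichment score (E-score), a modified Wilcoxon-Mann-Whitney statistic from -0.5 to +0.5, computed with the Universal PBM Analysis Suite. Scale: above 0.35 generally sequence-specific binding.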

Row | Sequence | PBM E-score
1 | CAGAAGAG | -0.0054
2 | ACTATCTA | -0.0777
3 | ATTCCGTG | -0.111
4 | CGTACAAA | -0.207
5 | CCACGAAG | -0.0422
6 | ATCCGAGC | -0.065
7 | CTTTACCA | 0.0126
8 | CCGTGCCG | -0.103
9 | AGACTAAA | 0.0743
10 | CACGCCAG | -0.192
11 | GTGAGATA | -0.00882
12 | CCTGCCCG | -0.269
13 | AGAATGTG | -0.221
14 | ATGGTACC | 0.0555
15 | AAGAACAA | 0.031
16 | AAACAGGC | -0.117
17 | GGAGAGAA | -0.0838
18 | AGATTTAC | 0.149
19 | ACTGTCAT | -0.153
20 | AAGCCGTC | 0.0932
21 | GAACCTGC | -0.112
22 | GATCCGTA | 0.0138
23 | CCTTGAGC | -0.105
24 | ATGGAAGG | -0.201
25 | CATGGCCG | -0.106

Row | Sequence | PBM E-score
26 | CACAACGG | -0.302
27 | TGCACACA | -0.235
28 | CTTCGATC | -0.147
29 | CAGGCGGG | 0.0356
30 | CCCTACCG | -0.134
31 | CATACTGC | 0.0056
32 | TAAAAGAA | 0.217
33 | TGGTAGAA | -0.0549
34 | ATCTACGC | 0.0521
35 | CAAGAATA | 0.19
36 | CTTCGAAA | 0.102
37 | AAGTGAGG | -0.0969
38 | ATGACTCA | -0.148
39 | GTTCAAAC | -0.0258
40 | ATGAAGAG | 0.0953
41 | ACCGCTCC | -0.0135
42 | ACAGTCAT | -0.21
43 | AACAGTCA | -0.196
44 | CGGTAACC | 0.134
45 | AGTGGCAC | 0.15
46 | CAGCCTGA | 0.099
47 | CCCATAAA | 0.0198
48 | ACTTTTAC | 0.172
49 | ATGCAAAC | 0.115
50 | ATTGACGA | -0.0985

Row | Sequence | PBM E-score
51 | TTATGGAA | 0.163
52 | GTCAGAGA | -0.187
53 | TACGCTGA | 0.0439
54 | ACTTAGAA | 0.00292
55 | GAGTCCCC | -0.0421
56 | ATCCAATC | 0.13
57 | ACAGGAGT | 0.0951
58 | AGCACGGC | -0.0167
59 | CGGGCTGA | -0.241
60 | AGACTTAA | -0.0766
61 | AATCTTAA | 0.0368
62 | CGGCGAAA | -0.141
63 | GCCATAGA | -0.134
64 | AATGGTGA | -0.0677
65 | AGAAATAA | 0.132
66 | CCCACCGG | -0.0366
67 | GTGGATGA | -0.123
68 | ACATGCAT | -0.0948
69 | AGAAGTCG | 0.271
70 | CATGTCTA | -0.207
71 | GTGGGCTA | -0.0188
72 | ATCCGGAG | 0.129
73 | CGCCTGTA | 0.0857
74 | AATAAATG | -0.0631
75 | AAACAATG | 0.0177

Row | Sequence | PBM E-score
76 | GCGCAGAA | 0.0232
77 | AAGTATCT | 0.113
78 | GGCTGCAC | -0.115
79 | GGCATTAA | 0.0673
80 | GATGCTTA | 0.151
81 | AGTCAACC | -0.181
82 | GGAGGTGA | 0.093
83 | TCCATCAA | -0.0209
84 | AAACCTTG | -0.0795
85 | ATGTTTAC | 0.044
86 | CACGTCAG | -0.0814
87 | ATAACTAA | -0.00835
88 | CGTAGGAG | -0.176
89 | ACTGGTCC | -0.314
90 | GGGATATA | -0.108
91 | AGCCGGGC | -0.0478
92 | GTTGGGAA | 0.0566
93 | GAACAGAC | -0.104
94 | AGCAGGAT | 0.0541
95 | ACCCCCGC | -0.104
96 | ACATTCGA | -0.114
97 | ATAATAAT | 0.0664
98 | CGCTCAAC | -0.0355
99 | ATCATAAG | 0.0563
100 | TAGGCCAA | -0.255

Row | Sequence | PBM E-score
101 | AGCCCCGA | -0.108
102 | GAGCAGGC | -0.198
103 | GGTATAGA | 0.112
104 | CGGTGTAA | 0.00963
105 | AAAGTATT | -0.00522
106 | CACGCGCC | 0.119
107 | ATTCGATC | -0.145
108 | GACAGGCA | 0.108
109 | ACTGAAGT | 0.0283
110 | GTGGGTAA | -0.0908
111 | ACCATATA | 0.126
112 | CGACTGCG | -0.0439
113 | GGGGTGCA | 0.0288
114 | CGTGGCCC | -0.182
115 | AATCTCGA | 0.0433
116 | CGGATAAG | -0.0314
117 | GCAATCCA | 0.0482
118 | GAAACTCA | 0.101
119 | AAGAGCGA | -0.103
120 | ACCAAATG | 0.225
121 | ACCCTAGT | -0.0547
122 | CGAAACAA | -0.0129
123 | GTCATGAC | -0.172
124 | GCAACAGC | -0.0432
125 | CGGGAGTA | -0.00887

Row | Sequence | PBM E-score
126 | AATTTGAT | -0.0357
127 | CGTCGCTC | -0.148
128 | ATTTCGAC | -0.0391
129 | GGGCCCAC | 0.193
130 | ACCGCTCA | -0.127
131 | CCCCAATC | -0.035
132 | TATCGGCA | 0.091
133 | ACAACCGC | 0.0429
134 | TTCAGCAA | -0.0395
135 | ACTCGGAA | 0.166
136 | ATGTGATG | -0.0994
137 | CCCCACAC | 0.108
138 | CCCCTTTC | 0.125
139 | CGCGGCGC | 0.217
140 | ACATAGAT | -0.117
141 | CAAGAGAC | -0.203
142 | ATCGCTGA | -0.094
143 | GGAGAAAC | -0.217
144 | TCACCGGA | 0.175
145 | TCGGCCGA | -0.121
146 | TAGCTACA | -0.0125
147 | TAGCGAAA | -0.143
148 | ACAGCTGT | -0.0809
149 | ATCAAAGC | -0.00302
150 | GTAACTCA | -0.0907

Row | Sequence | PBM E-score
151 | GAGACGCC | 0.234
152 | AATGGTAT | 0.0672
153 | AGACACGC | -0.0398
154 | CCTCCTCA | -0.0421
155 | AACTGAGT | -0.0972
156 | AGCCCAGG | -0.148
157 | GACTTGTA | 0.14
158 | TCCAGACA | 0.149
159 | AAAAAGGC | 0.00938
160 | ACCCATAC | 0.0568
161 | ACTGCCCT | -0.195
162 | AAAGTGCA | -0.0249
163 | AAGGAGGG | -0.0943
164 | CTACCTCC | -0.0336
165 | ACACTGCG | 0.0668
166 | CAAACGGA | -0.049
167 | ACAAGCTA | -0.0171
168 | ACGAGCCG | -0.0911
169 | CGACGGCC | -0.389
170 | TCTTATCA | 0.232
171 | AATGTTTA | 0.0924
172 | CGATTTAC | -0.039
173 | ATTACCCA | -0.115
174 | ACTAGGTC | -0.126
175 | GATCGCCC | -0.106

Row | Sequence | PBM E-score
176 | AAAATTTC | 0.0607
177 | ACGTCAAT | -0.0602
178 | CACCGCGA | -0.0743
179 | ATGCAGCA | 0.0519
180 | CAACGGTG | -0.0872
181 | CAACTATA | 0.103
182 | ACCGTCCA | 0.0563
183 | AGGAATTC | 0.261
184 | AAAACGCT | -0.0686
185 | TGAATTAA | 0.0255
186 | AGATTGGG | 0.131
187 | CCTTCACC | -0.0651
188 | ACGGGGTG | -0.00575
189 | CTTCTTAA | 0.118
190 | AAATGCTC | 0.181
191 | AGGGCGCG | 0.194
192 | AGCAATTC | -0.153
193 | GATGAAAA | 0.00281
194 | CTTCAACA | 0.0874
195 | CCTCAGTC | -0.0922
196 | AAAAAAAG | 0.165
197 | AAAACACA | 0.0416
198 | AGGAGCCC | 0.294
199 | AAGTCGAC | -0.16
200 | AACGGTCG | -0.161

Row | Sequence | PBM E-score
201 | CCTCGGCG | 0.0644
202 | TGGGCTAA | -0.175
203 | ATTCCATA | 0.0655
204 | CCACCATC | 0.0892
205 | CGCCCGAA | 0.166
206 | AAACTCAG | -0.0351
207 | GCCCCGTA | -0.0324
208 | GGCCACTA | 0.248
209 | CAACCCAA | 0.00025
210 | TGCCCACA | -0.0941
211 | GGTTGGAA | 0.183
212 | ACCAGGCT | -0.00947
213 | AGTCGCAG | 0.156
214 | TCCTACAA | 0.0583
215 | AAGCACGC | 0.0992
216 | GACCTATC | 0.0761
217 | CATGAGCG | -0.0118
218 | GCCCTAGA | -0.064
219 | AATAAACT | 0.105
